Test results: paper PMC12820563
Some of the results follow. The list includes weakly bound sequences.

Target: T1, MBP-FoxP3dN (UniProt Q99JB6)
T1 sequence: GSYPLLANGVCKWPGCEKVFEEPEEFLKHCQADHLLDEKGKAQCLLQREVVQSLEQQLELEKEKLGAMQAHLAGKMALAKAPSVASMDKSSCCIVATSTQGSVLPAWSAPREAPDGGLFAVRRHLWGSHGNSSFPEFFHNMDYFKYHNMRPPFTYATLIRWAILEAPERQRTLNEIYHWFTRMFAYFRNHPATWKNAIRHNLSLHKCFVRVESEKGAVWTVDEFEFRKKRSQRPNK
Assay: PD-seq (MBP pull-down with sequencing)
Settings: 20 mM Tris-HCl pH 7.5, 100 mM NaCl, 1.5 mM MgCl2, 0.4 uM protein, 0.1 uM dsDNA library, 30 min, room temperature, amylose pull-down; high values mean tight binding; double strand, one strand shown

“GATGATTGTTCTCCCAGCTGATGAATTACGCGCCTCGAGTAAACAAATTTTCCTAATCTTTCTGTTCAAGCGCCATCTAC” was tested. Which binding signal (RPM ratio (pull-down/input)) did it give?
The binding signal (RPM ratio (pull-down/input)) was 1.67.

For “GATGATTGTTCTCCCAGCTGATGAATTGCCGTAGTCGAGTAAACAAATTTTCCTAATCTTTCTGTTCAAGCGCCATCTAC”, which binding signal (RPM ratio (pull-down/input)) is on record?
The binding signal (RPM ratio (pull-down/input)) was 0.585.

“GATGATTGTTCTCCCAGCTGATGAATTTTCACAGTCGAGTAAACAAATTTTCCTAATCTTTCTGTTCAAGCGCCATCTAC” was tested. Which binding signal (RPM ratio (pull-down/input)) did it give?
The binding signal (RPM ratio (pull-down/input)) was 0.202.

For “GATGATTGTTCTCCCAGCTGATGAATTTTCATGGTCGAGTAAACAAATTTTCCTAATCTTTCTGTTCAAGCGCCATCTAC”, which binding signal (RPM ratio (pull-down/input)) is on record?
Its binding signal (RPM ratio (pull-down/input)) is 0.294.

For “GATGATTGTTCTCCCAGCTGATGAATTCCTCTTATCGAGTAAACAAATTTTCCTAATCTTTCTGTTCAAGCGCCATCTAC”, which binding signal (RPM ratio (pull-down/input)) is on record?
The binding signal (RPM ratio (pull-down/input)) was 0.344.

“GATGATTGTTCTCCCAGCTGATGAATTCCTACTGTCGAGTAAACAAATTTTCCTAATCTTTCTGTTCAAGCGCCATCTAC” was tested. Which binding signal (RPM ratio (pull-down/input)) did it give?
The binding signal (RPM ratio (pull-down/input)) was 0.307.

With “GATGATTGTTCTCCCAGCTGATGAATTTGTTATATCGAGTAAACAAATTTTCCTAATCTTTCTGTTCAAGCGCCATCTAC” as the sequence, how does the binding signal (RPM ratio (pull-down/input)) read?
Its binding signal (RPM ratio (pull-down/input)) is 5.26.

How did the binding signal (RPM ratio (pull-down/input)) turn out when “GATGATTGTTCTCCCAGCTGATGAATTACCGAAATCGAGTAAACAAATTTTCCTAATCTTTCTGTTCAAGCGCCATCTAC” was run?
The binding signal (RPM ratio (pull-down/input)) was 0.328.

With “GATGATTGTTCTCCCAGCTGATGAATTACCGAGCTCGAGTAAACAAATTTTCCTAATCTTTCTGTTCAAGCGCCATCTAC” as the sequence, how does the binding signal (RPM ratio (pull-down/input)) read?
Its binding signal (RPM ratio (pull-down/input)) is 0.272.

“GATGATTGTTCTCCCAGCTGATGAATTGTAACGTTCGAGTAAACAAATTTTCCTAATCTTTCTGTTCAAGCGCCATCTAC” was tested. Which binding signal (RPM ratio (pull-down/input)) did it give?
The binding signal (RPM ratio (pull-down/input)) was 0.707.

For “GATGATTGTTCTCCCAGCTGATGAATTCCCGAAGTCGAGTAAACAAATTTTCCTAATCTTTCTGTTCAAGCGCCATCTAC”, which binding signal (RPM ratio (pull-down/input)) is on record?
Its binding signal (RPM ratio (pull-down/input)) is 0.149.

Which binding signal (RPM ratio (pull-down/input)) does the source give for “GATGATTGTTCTCCCAGCTGATGAATTGACCATCTCGAGTAAACAAATTTTCCTAATCTTTCTGTTCAAGCGCCATCTAC” here?
The binding signal (RPM ratio (pull-down/input)) was 0.424.

With “GATGATTGTTCTCCCAGCTGATGAATTTAGCGCATCGAGTAAACAAATTTTCCTAATCTTTCTGTTCAAGCGCCATCTAC” as the sequence, how does the binding signal (RPM ratio (pull-down/input)) read?
Its binding signal (RPM ratio (pull-down/input)) is 1.5.

How did the binding signal (RPM ratio (pull-down/input)) turn out when “GATGATTGTTCTCCCAGCTGATGAATTTCGTAGATCGAGTAAACAAATTTTCCTAATCTTTCTGTTCAAGCGCCATCTAC” was run?
Its binding signal (RPM ratio (pull-down/input)) is 0.366.

With “GATGATTGTTCTCCCAGCTGATGAATTACGGGCTTCGAGTAAACAAATTTTCCTAATCTTTCTGTTCAAGCGCCATCTAC” as the sequence, how does the binding signal (RPM ratio (pull-down/input)) read?
Its binding signal (RPM ratio (pull-down/input)) is 0.401.

“GATGATTGTTCTCCCAGCTGATGAATTGGTATGATCGAGTAAACAAATTTTCCTAATCTTTCTGTTCAAGCGCCATCTAC” was tested. Which binding signal (RPM ratio (pull-down/input)) did it give?
The binding signal (RPM ratio (pull-down/input)) was 0.698.

How did the binding signal (RPM ratio (pull-down/input)) turn out when “GATGATTGTTCTCCCAGCTGATGAATTTACTATGTCGAGTAAACAAATTTTCCTAATCTTTCTGTTCAAGCGCCATCTAC” was run?
Its binding signal (RPM ratio (pull-down/input)) is 0.943.

How did the binding signal (RPM ratio (pull-down/input)) turn out when “GATGATTGTTCTCCCAGCTGATGAATTGTCTATATCGAGTAAACAAATTTTCCTAATCTTTCTGTTCAAGCGCCATCTAC” was run?
The binding signal (RPM ratio (pull-down/input)) was 1.03.

How did the binding signal (RPM ratio (pull-down/input)) turn out when “GATGATTGTTCTCCCAGCTGATGAATTCCCTGACTCGAGTAAACAAATTTTCCTAATCTTTCTGTTCAAGCGCCATCTAC” was run?
Its binding signal (RPM ratio (pull-down/input)) is 0.199.

For “GATGATTGTTCTCCCAGCTGATGAATTGGGCTAATCGAGTAAACAAATTTTCCTAATCTTTCTGTTCAAGCGCCATCTAC”, which binding signal (RPM ratio (pull-down/input)) is on record?
The binding signal (RPM ratio (pull-down/input)) was 0.36.

For “GATGATTGTTCTCCCAGCTGATGAATTTTGCGAGTCGAGTAAACAAATTTTCCTAATCTTTCTGTTCAAGCGCCATCTAC”, which binding signal (RPM ratio (pull-down/input)) is on record?
The binding signal (RPM ratio (pull-down/input)) was 1.55.

Which binding signal (RPM ratio (pull-down/input)) does the source give for “GATGATTGTTCTCCCAGCTGATGAATTATAGCCATCGAGTAAACAAATTTTCCTAATCTTTCTGTTCAAGCGCCATCTAC” here?
The binding signal (RPM ratio (pull-down/input)) was 1.56.

How did the binding signal (RPM ratio (pull-down/input)) turn out when “GATGATTGTTCTCCCAGCTGATGAATTGCCCACATCGAGTAAACAAATTTTCCTAATCTTTCTGTTCAAGCGCCATCTAC” was run?
Its binding signal (RPM ratio (pull-down/input)) is 0.609.

For “GATGATTGTTCTCCCAGCTGATGAATTAGTCACCTCGAGTAAACAAATTTTCCTAATCTTTCTGTTCAAGCGCCATCTAC”, which binding signal (RPM ratio (pull-down/input)) is on record?
Its binding signal (RPM ratio (pull-down/input)) is 1.55.

For “GATGATTGTTCTCCCAGCTGATGAATTTCCGGGATCGAGTAAACAAATTTTCCTAATCTTTCTGTTCAAGCGCCATCTAC”, which binding signal (RPM ratio (pull-down/input)) is on record?
The binding signal (RPM ratio (pull-down/input)) was 0.215.

“GATGATTGTTCTCCCAGCTGATGAATTAGGGCCATCGAGTAAACAAATTTTCCTAATCTTTCTGTTCAAGCGCCATCTAC” was tested. Which binding signal (RPM ratio (pull-down/input)) did it give?
The binding signal (RPM ratio (pull-down/input)) was 1.12.

For “GATGATTGTTCTCCCAGCTGATGAATTTACATTTTCGAGTAAACAAATTTTCCTAATCTTTCTGTTCAAGCGCCATCTAC”, which binding signal (RPM ratio (pull-down/input)) is on record?
The binding signal (RPM ratio (pull-down/input)) was 0.509.

“GATGATTGTTCTCCCAGCTGATGAATTGGAGGACTCGAGTAAACAAATTTTCCTAATCTTTCTGTTCAAGCGCCATCTAC” was tested. Which binding signal (RPM ratio (pull-down/input)) did it give?
The binding signal (RPM ratio (pull-down/input)) was 0.276.

“GATGATTGTTCTCCCAGCTGATGAATTTTAAAAATCGAGTAAACAAATTTTCCTAATCTTTCTGTTCAAGCGCCATCTAC” was tested. Which binding signal (RPM ratio (pull-down/input)) did it give?
Its binding signal (RPM ratio (pull-down/input)) is 0.162.

How did the binding signal (RPM ratio (pull-down/input)) turn out when “GATGATTGTTCTCCCAGCTGATGAATTTGCATCGTCGAGTAAACAAATTTTCCTAATCTTTCTGTTCAAGCGCCATCTAC” was run?
The binding signal (RPM ratio (pull-down/input)) was 4.11.

How did the binding signal (RPM ratio (pull-down/input)) turn out when “GATGATTGTTCTCCCAGCTGATGAATTTTAAACTTCGAGTAAACAAATTTTCCTAATCTTTCTGTTCAAGCGCCATCTAC” was run?
Its binding signal (RPM ratio (pull-down/input)) is 0.212.
